Test [1] concerns the target GST-tagged ANKRD1 recombinant protein (UniProt Q15327). Nature of the test: pull-down; GST-tagged ANKRD1 (100 ng) held on glutathione-conjugated beads, mixed with recombinant JUN or FOS proteins (100 ng each), alone or combined, with or without AP-1 DNA oligo or T-5224 (20 uM); 150 mM NaCl, 100 mM Tris pH 8, 0.5% NP40, 10% glycerol; overnight at 4 °C; western blot; both purified. (In general: A western blot detects proteins with antibodies after separation by electrophoresis.)

The chains behind the UniProt entries cited, without tags or fusion partners. Where a name states a change or a piece, a line headed by the entry shows the natural chain unless it says otherwise.
UniProt Q15327: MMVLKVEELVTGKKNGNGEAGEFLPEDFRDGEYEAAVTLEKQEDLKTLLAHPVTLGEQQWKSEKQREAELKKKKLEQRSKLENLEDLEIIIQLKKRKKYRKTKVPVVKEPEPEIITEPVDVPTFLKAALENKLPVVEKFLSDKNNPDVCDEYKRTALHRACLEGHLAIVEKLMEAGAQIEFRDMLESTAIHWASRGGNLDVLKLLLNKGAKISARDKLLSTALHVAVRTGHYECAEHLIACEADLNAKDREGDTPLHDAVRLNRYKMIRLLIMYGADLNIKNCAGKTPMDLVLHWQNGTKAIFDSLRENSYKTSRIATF
UniProt P01100: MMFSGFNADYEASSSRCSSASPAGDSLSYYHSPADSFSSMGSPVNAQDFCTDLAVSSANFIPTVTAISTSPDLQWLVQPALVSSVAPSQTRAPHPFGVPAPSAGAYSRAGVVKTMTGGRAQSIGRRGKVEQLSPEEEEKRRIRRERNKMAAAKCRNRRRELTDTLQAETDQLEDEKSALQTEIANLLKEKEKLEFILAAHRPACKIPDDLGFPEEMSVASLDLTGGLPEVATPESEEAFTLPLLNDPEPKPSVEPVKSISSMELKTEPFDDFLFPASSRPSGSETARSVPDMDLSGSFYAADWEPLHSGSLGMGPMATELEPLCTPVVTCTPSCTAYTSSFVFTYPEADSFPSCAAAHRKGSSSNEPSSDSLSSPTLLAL
UniProt P05412: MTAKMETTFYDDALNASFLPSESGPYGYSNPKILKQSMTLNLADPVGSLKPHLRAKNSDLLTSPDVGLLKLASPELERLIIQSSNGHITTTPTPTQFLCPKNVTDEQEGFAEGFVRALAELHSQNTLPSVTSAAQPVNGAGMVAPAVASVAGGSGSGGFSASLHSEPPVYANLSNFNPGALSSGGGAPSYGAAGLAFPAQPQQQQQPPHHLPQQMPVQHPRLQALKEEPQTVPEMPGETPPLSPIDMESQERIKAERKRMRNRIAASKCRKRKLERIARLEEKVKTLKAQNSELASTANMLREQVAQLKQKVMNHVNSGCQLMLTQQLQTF

The target of test [2] is ANKRD1 fused with a V5-tag, expressed in HEK293 cells (human) (UniProt Q15327). The test is described as follows: co-IP; V5-tag magnetic beads, 250 ug lysate of ANKRD1-overexpressing HEK293 cells digested with DNase I; 50 mM Tris-HCl pH 7.4, 150 mM NaCl, 1 mM EDTA, 1% NP-40, 1% Na-deoxycholate, 0.05% SDS; 4 °C, 12 hours; immunoblot for ANKRD1, JUN, FOSL2.
Test [3] concerns the target ANKRD1, endogenous in cancer-associated fibroblasts (human (endogenous in CAFs)) (UniProt Q15327). The test is described as follows: proximity ligation; Duolink PLA on fixed, permeabilised cells with anti-ANKRD1, anti-JUN and anti-FOSL2 (FRA2) antibodies; HDFs infected with ANKRD1OE or CTRL vector, CAFs and matched HDFs, CAFs with shANKRD1 or ANKRD1-FANA ASO; puncta per cell.

Test [4] has as its target ANKRD1 fused with a V5-tag, expressed in human dermal fibroblasts (human) (UniProt Q15327). Described as above.
The target of test [5] is GST-tagged ANKRD1 recombinant protein (UniProt Q15327). The test is described as follows: condition: only c-JUN heat denatured (20 min at 98 °C) before the binding assay; 100 ng; pull-down; as a1, but recombinant JUN heated for 20 min at 98 °C before mixing with GST-tagged ANKRD1; both purified.

Results are given in words; binding and its absence hold for the method and conditions named. For some of these results: Binding seen in cells or lysates may run through a third protein. Some binding calls cover weakened binding; strength is not graded here.

For the substance “HIS-tagged FOS recombinant protein (full-length FOS) (from UniProt P01100 1-380)”, in test [1], the binding result is given as “binds weakly”.
As to “HIS-tagged JUN (truncated form 1-241aa) (from UniProt P05412 1-241) (domain or fragment)”, the binding result in test [1] is given as “no binding (tested: 100 ng)”.
In the case of “c-JUN, endogenous in HEK293 cells (from UniProt P05412 1-331)”, in test [2], the binding entry is recorded as “binds”.
As for “c-JUN, endogenous in human dermal fibroblasts and cancer-associated fibroblasts (from UniProt P05412 1-331)”, the binding result in test [3] and in test [4] was “binds” each time.
On to “full-length JUN recombinant protein (from UniProt P05412 1-331)”, for which the binding result in test [5] is reported as “no binding”; in test [1], “binds”.

The values above are taken from paper PMC10838290.
